# Test results taken from PubChem BioAssay AID1454 (National Center for Advancing Translational Sciences (NCATS), 2008).
# Among all 130,000 compounds or so, about 550 (0.42%) were called active. Inconclusive means that the source gave no clear call. Such entries were picked first, then a sample of the others. Calls follow the shape of the dose curve; as a rule, active = well fitted inhibition curve with a large enough effect; inconclusive = small, poorly fitted or top-dose-only effect, or effect the other way; inactive = flat fitted curve, though single readings scatter. Potencies of inconclusive entries are left out as doubtful fits.
# Experiment: qHTS Assay for Inhibitors of the ERK Signaling Pathway using a Homogeneous Screening Assay; Stimulation with EGF; also: nearly all actives have a fitted effect of over 55% in size;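 as to activity change, negative = inhibition: plate controls were stimulated vehicle wells for no effect and unstimulated vehicle basal for full effect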
# Details: HEK293-V1b, EGF-stimulated phospho-ERK AlphaScreen; activity change, negative = inhibition: at the top concentration
# How it was run: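 Readout: AlphaScreen signal for phosphorylated ERK in lysed HEK293 cells stably expressing V1b. Stimulus 25 nM EGF, 5 min, following 30 min compound exposure. Data scaled to DMSO basal and full EGF activation.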
# Potency is read from the fitted curve at half-maximal effect; tags tell the direction and shape of the fitted curve.
SMILES,Potency,"activity change, negative = inhibition"
O=C(O)C[C@@H]1C(=O)O[C@@H]2C(COC(=O)c3cc(O)c(O)c(O)c3)O[C@@H](OC(=O)c3cc(O)c(O)c(O)c3)[C@@H](OC(=O)c3cc(O)c(O)c4c3[C@H]1[C@H](O)C(=O)O4)[C@H]2OC(=O)c1cc(O)c(O)c(O)c1 (stereo partly drawn),"inconclusive [inhibitor, single point]",–
CCC(=O)OCCNc1cc(Sc2nccn2C)c2nonc2c1[N+](=O)[O-],"inconclusive [inhibitor, single point]",–
CCN(CC)c1ccc(/C=N/N2CCN(Cc3ccccc3Cl)CC2)c(O)c1,active: 15.8 µM,–
Cc1ccc(SCC(=O)N2CCOCC2)cc1,"inconclusive [inhibitor, single point]",–
COc1cccc(O)c1O,"inconclusive [inhibitor, partial curve, poor fit]",–
O=C(Nc1ccc(N2CCN(C(=O)c3cccs3)CC2)c(Cl)c1)c1cccnc1,"inconclusive [inhibitor, single point]",–
FC(F)(F)c1cccc(-c2nc(COc3ccc(Cl)cc3Cl)no2)c1,"inconclusive [activator, single point]",–
Cc1c(C=O)c2ccccn2c1C(=O)c1ccc(Cl)c([N+](=O)[O-])c1,"inconclusive [inhibitor, single point]",–
Cn1c(N=NC(=O)c2ccccc2)c(O)c2ccccc21,"inconclusive [inhibitor, partial curve]",–
O=C(CCc1nnc(C2(c3ccc(Cl)cc3)CCC2)o1)NC1CC1,"inconclusive [inhibitor, single point]",–
O=C(NC(=S)NN1CCCCC1c1cccnc1)c1ccc(Br)cc1 (stereo not drawn),active: 14.1 µM,–
CCOc1ccc(CN2CCN(C/C=C/c3ccc(OC)cc3)CC2CCO)cc1 (stereo not drawn),"inconclusive [inhibitor, full curve, poor fit]",–
Cc1cccc(CS(=O)(=O)Cc2ccc(C(=O)NCc3cccs3)o2)c1,–,inactive: -3.03%
CC(C)(C)NC(=O)[C@H]1CC[C@H]2[C@@H]3CC[C@H]4NC(=O)C=C[C@]4(C)[C@H]3CC[C@]12C,"inconclusive [inhibitor, single point]",–
O=C(/C=C/c1ccc(-c2ccccc2[N+](=O)[O-])o1)c1ccccc1,"inconclusive [inhibitor, single point]",–
Clc1ccc(-c2nc(NCCCN3CCOCC3)c3ccccc3n2)cc1,"inconclusive [inhibitor, partial curve, poor fit]",–
O=C(COC(=O)c1ccccn1)Nc1nc(-c2cccc([N+](=O)[O-])c2)cs1,"inconclusive [inhibitor, full curve]",–
O=C(NCc1cc(F)cc2c1OCCO2)[C@H]1C[C@@H]1[C@H](NP(=O)(c1ccccc1)c1ccccc1)c1ccccc1,"inconclusive [inhibitor, single point]",–
CCOC(=O)N1CCc2c(sc(NC(=O)CN3CCOCC3)c2C#N)C1,–,inactive: -7.59% [at 57.5 µM]

SMILES,Potency,"activity change, negative = inhibition"
COC(=O)c1ccc(C(NC(=O)OCc2ccccc2)/C(F)=C/[C@@H](C)C(=O)NCCN2CCOCC2)cc1 (stereo partly drawn),–,inactive: -3.99%
COc1ccc(C(=O)O)cc1NC(=S)NC(=O)c1ccc(-c2ccc(Cl)cc2)o1,"inconclusive [inhibitor, partial curve]",–
O=C(N/N=C/c1sc(N2CCOCC2)nc1-c1ccccc1)c1ccc(O)cc1,"inconclusive [inhibitor, partial curve]",–
CCOC(=O)Cn1c(=O)c(-c2cc(Br)ccc2N)nc2ccccc21,"inconclusive [inhibitor, full curve]",–
Cc1ccc(NC(=O)Cn2cc(S(=O)(=O)c3ccc(F)cc3)c(=O)c3cc(F)ccc32)cc1,"inconclusive [inhibitor, partial curve]",–
CCCC(=O)Nc1nc2ccc(NC(=O)c3ccccc3F)cc2s1,"inconclusive [inhibitor, single point]",–
Cc1ccc2c(c1)c1ccc3c(c1n2C)C(=O)C=CC3=O,"inconclusive [inhibitor, single point]",–
Cc1cccc(OCc2nc3c4c(ncn3n2)-c2ccccc2CC42CCCC2)c1,"inconclusive [activator, single point]",–
COc1ccc(CNCc2cn(-c3cccc(F)c3)nc2-c2ccc(C)o2)cc1,"inconclusive [inhibitor, single point]",–
COc1cc(CNc2ccc(N3CCCC3)cc2)ccc1OCc1ccccc1,"inconclusive [inhibitor, partial curve]",–
Cc1cc(C)n2c(=O)c3ccc(Cl)cc3nc2c1C#N,"inconclusive [activator, single point]",–
COc1ccc(C2=CC(=O)CC(c3ccc(OC)cc3)C2)cc1 (stereo not drawn),"inconclusive [inhibitor, single point]",–
CC1(C)Cc2c(C#N)c(N3CCOCC3)nc(-c3ccccc3)c2CO1,"inconclusive [activator, single point]",–
S=C(NCCc1ccccc1)N/N=C/c1ccc(Cl)cc1,"inconclusive [inhibitor, single point]",–
CCOC(=O)C(CCCCOc1cccc(CC)c1)C(=O)OCC,"inconclusive [activator, partial curve]",–
Cn1cc(Cl)c(C(=O)OCC(=O)Nc2nc(-c3ccc(Br)cc3)cs2)n1,"inconclusive [inhibitor, single point]",–
O=C(/C=C/c1ccc(OCCCF)cc1)Nc1ccnc(-c2ccncc2)n1,"inconclusive [inhibitor, partial curve]",–
COc1cc(/C=N/NC(=O)c2ccc(CSc3nc4ccccc4[nH]3)cc2)ccc1O,"inconclusive [inhibitor, single point]",–
Cc1cccc(OCC(=O)Nc2ccc(N3CCN(C(=O)c4ccccc4)CC3)cc2)c1,"inconclusive [inhibitor, single point]",–
